Over roughly 110,000 compounds, “z-score” has its median near -0.1; the highest 2% begin near 2. Some of the results follow. Activity calls are given as the source filed them.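 Rule for the calls: active = z-score in the third read window above 3 or below -3; inactive = the rest.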

This assay concerns the target Metabotropic glutamate receptor 8 (Rattus norvegicus) (UniProt P70579). Description: mGluR8 Gi/Go-coupled signaling modulation – cell-based, rat, thallium flux, HTS, primary screen (AID 488969). To be noted: HEK293 rat mGluR8, GIRK (G protein-gated inwardly rectifying potassium channel) thallium flux, FluoZin2; at 10 µM; stronger effect = higher value; submaximal glutamate (EC20) added with thallium.
Sequence of UniProt P70579 (P70579 whole entry, looked up): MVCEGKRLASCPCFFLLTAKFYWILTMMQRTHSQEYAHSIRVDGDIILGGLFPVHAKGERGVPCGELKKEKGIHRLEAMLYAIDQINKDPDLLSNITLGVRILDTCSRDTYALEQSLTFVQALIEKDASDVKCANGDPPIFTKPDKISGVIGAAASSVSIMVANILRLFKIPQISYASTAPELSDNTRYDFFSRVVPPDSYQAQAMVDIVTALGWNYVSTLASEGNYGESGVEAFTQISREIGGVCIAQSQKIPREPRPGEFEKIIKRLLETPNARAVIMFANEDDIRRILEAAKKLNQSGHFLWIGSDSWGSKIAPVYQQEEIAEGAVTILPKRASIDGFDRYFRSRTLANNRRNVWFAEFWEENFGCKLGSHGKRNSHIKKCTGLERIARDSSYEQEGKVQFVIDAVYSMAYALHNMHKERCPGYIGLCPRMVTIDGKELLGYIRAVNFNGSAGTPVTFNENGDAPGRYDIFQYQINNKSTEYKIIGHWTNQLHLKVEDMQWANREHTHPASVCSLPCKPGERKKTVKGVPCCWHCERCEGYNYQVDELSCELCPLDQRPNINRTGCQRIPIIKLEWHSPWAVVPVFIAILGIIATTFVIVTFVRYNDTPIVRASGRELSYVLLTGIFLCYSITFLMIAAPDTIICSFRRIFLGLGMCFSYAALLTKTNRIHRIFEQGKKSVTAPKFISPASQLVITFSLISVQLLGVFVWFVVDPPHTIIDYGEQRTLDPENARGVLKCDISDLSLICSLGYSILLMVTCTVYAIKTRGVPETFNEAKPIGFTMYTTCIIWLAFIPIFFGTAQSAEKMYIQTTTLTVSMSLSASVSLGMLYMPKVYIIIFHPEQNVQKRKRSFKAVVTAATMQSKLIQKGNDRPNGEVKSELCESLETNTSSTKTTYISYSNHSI
Molecule `CN(C)/C=N/c1ncc(C(=O)c2ccc3ccccc3c2)s1` had a z-score of -0.355.

As to `COc1ccc2[nH]cc(C(=O)N3CCCCC3)c(=O)c2c1`, the z-score was -0.07.

Molecule `COc1ccc2c(c1)nc(SCC(=O)C(C)(C)C)n2C` registered a z-score of -0.0964.

With `O=C(COC(=O)c1c2c(nc3ccccc13)CCCC2)c1ccc(Br)s1`, the z-score is -0.0387.

In turn, `CCN1CCCC1CNC(=O)Cn1cnc2sc(C)c(S(=O)(=O)N3CCC(C)CC3)c2c1=O` (stereo not given) gave a z-score of -0.21.

`CCn1c(C)cc(/C=C2\NC(=O)N(CC(=O)Nc3cccc(C)c3)C2=O)c1C` displayed a z-score of -0.0332.

`CCO/N=C(/c1nonc1N)N1CCN(c2ccc([N+](=O)[O-])cc2)CC1`: the z-score turned out to be 0.74.

`CCn1c(CSCc2ccc(C)cc2)nnc1SCC(=O)N1CCN(c2ccccc2)CC1` yielded a z-score of -0.28.

In the case of `O=c1n(-c2ccccc2)c(=O)n(Cc2ccccn2)n1Cc1ccccn1`, the z-score was 0.0222.

Regarding `Cc1ccc(S(=O)(=O)C2(C(=O)N3CCN(C4CCCCC4)CC3)CC2)cc1`, the z-score was -0.279.

As for `CCOC(=O)NC(NC(=S)Nc1ccc(OCC)cc1)C(Cl)(Cl)Cl` (stereo not given), the z-score is -0.0639.

`COC(=O)C(CCSC)NC(=O)c1cc2c(n(-c3ccccc3)c1=O)CC(C)(C)CC2=O` (stereo not given) yielded a z-score of 0.95.

`CC1CCCC(C)N1C(=O)c1cc(F)c(F)cc1Cl` (stereo not given) displayed a z-score of -0.11.

Turning to `COc1ccccc1NC(=O)NCc1ccc2c(c1)OCO2`, the z-score was 0.532.

With `Cc1cc(C)cc(N2C(=O)CC(n3ccnc3)C2=O)c1` (stereo not given), the z-score worked out at 0.088.

The molecule `COc1cccc(CN2CCCN(S(=O)(=O)c3ccc(Br)cc3)CC2)c1` gave a z-score of -0.778.

Consider `O=C(Nc1cccc(-c2cnc3ccccc3n2)c1)c1ccco1`, for which the z-score was -2.07.

`O=C(Nc1ccccn1)c1ccc(=O)[nH]n1`: the z-score stood at 0.0504.

Turning to `COc1ccc(C2CC(c3ccccc3)=NN2C(=O)CSc2nccc(=O)[nH]2)cc1` (stereo not given), the z-score was -0.737.

As to `Nc1ccccc1S(=O)(=O)NC1=NCCCCC1`, the z-score was -0.00421.

For `N#C/C(=C(\O)Cc1ccccc1)c1nc2ccccc2[nH]1`, the z-score is -0.0506.

Regarding `CN(Cc1cccs1)C(=O)CSc1nnnn1C`, the z-score came to 0.0544.

For `Cc1ccc(S(=O)(=O)N2CCCCC2C(=O)N2CCN(Cc3ccccc3)CC2)cc1` (stereo not given), the z-score was -0.926.

`Cc1cc(Cl)c(S(=O)(=O)Nc2ccc(Cl)cn2)cc1OCC(N)=O` displayed a z-score of 0.203.

`COC(=O)Nc1sc(C(=O)N(C)C)c(C)c1C(=O)OC`: the z-score amounted to 0.175.

For `O=C(Cc1ccccc1)Nc1ccccc1C(=O)Nc1ccccc1`, the z-score is -0.133.

Turning to `COCCn1c(SCC(=O)Nc2nnc(C)s2)nnc1-c1c[nH]c2ccccc12`, the z-score is -0.286.

`CC1(C)CC(=O)C2=C(C1)N(Cc1ccccc1)C(=O)C2(O)C(F)(F)F` (stereo not given) came in with a z-score of -1.97.

`O=S(=O)(c1ccc(N2CCOCC2)nc1)N1CCOCC1` gave a z-score of -0.208.

For the molecule `COC(=O)N/N=C/c1ccc(-c2ccc(Cl)c(Cl)c2)o1`, the z-score was 0.0264.

`Cc1ccc(Nc2ccc(S(=O)(=O)N3CCOCC3)cc2[N+](=O)[O-])c(C)c1` displayed a z-score of 1.29.

The molecule `COc1cccc(-n2c(C)c(C(C)=O)c(C(C)=O)c2C)c1` returned a z-score of 0.532.

In turn, `Cc1ccc2nc(NC(=O)C3CCN(S(=O)(=O)c4cc([N+](=O)[O-])ccc4Cl)CC3)sc2c1` registered a z-score of 0.225.

`CC(=NCc1ccco1)c1c(C(F)(F)F)[nH]n(-c2nc3ccccc3s2)c1=O` gave a z-score of 0.261.

`CCC(C)NCCOCCOc1ccc(Br)cc1C` (stereo not given) had a z-score of -0.776.

As for `CCOC(=O)c1c(NC(=S)Nc2ccc(C)cc2)sc2c1CCC2`, the z-score is -0.0357.

Turning to `Cc1cccc(OCCSc2ncnc3nc[nH]c23)c1`, the z-score is -0.162.

`O=C(Nc1ccccc1)c1cccnc1NCCc1ccccc1` showed a z-score of -0.23.

On to `O=C(CCc1ccccc1)OCC(=O)c1ccc(Br)cc1`, for which the z-score was -0.193.

`O=C(COC(=O)/C=C/c1ccc(F)cc1)Nc1ccccc1-c1ccccc1` had a z-score of 0.0587.

For the molecule `COC(=O)c1nc(-n2nc(C)cc2C)ccc1Cl`, the z-score is -0.265.

`CCc1ccc(NC(=O)C2CC(=O)Nc3ncnn32)cc1` (stereo not given) had a z-score of -0.109.

The molecule `CCOC(=O)CS(=O)(=O)c1ccccc1` yielded a z-score of 0.158.

Regarding `COC(/C=C/Nc1ccc(C)cc1)=C(C#N)C#N`, the z-score is -0.275.

The molecule `CC(=O)Nc1ccc(S(=O)(=O)NNC(=O)COc2cc(C)ccc2C(C)C)cc1` gave a z-score of 0.303.

In turn, `CC(Sc1nc(N)cc(=O)[nH]1)C(=O)Nc1cccc(Cl)c1` (stereo not given) showed a z-score of -0.0879.

`O=C(CCc1ccccc1)Nc1nnc(-c2ccccn2)o1`: the z-score came to 0.0278.

Take `O=C(O)Cc1ccc(NC(=O)c2ccc(NC(=O)c3ccco3)cc2)cc1`: the z-score is -0.337.

Molecule `O=C(/C=C/c1ccco1)Oc1cc(Br)cc(/C=N/NC(=O)c2ccccc2O)c1` showed a z-score of -0.00744.

In turn, `Cc1cc(C)c(NC2=NCC(=O)N2C2CCCCC2)c(C)c1` came in with a z-score of -0.306.

With `O=[N+]([O-])c1ccc(-c2cnc(NO)nc2)cc1`, the z-score is -0.143.

Consider `COC(=O)C1=C(C)N(CC(C)C)C(=O)C1`, for which the z-score worked out at 0.0326.

Molecule `COc1cccc(NCc2cc(=O)oc3cc(-c4ccccc4)c(O)cc23)c1` yielded a z-score of 1.1.

`CCNc1nc(NCc2ccccc2)nc(Oc2ccc(=O)[nH]n2)n1` returned a z-score of -0.148.

On to `CSCCC(NC(=O)c1ccco1)C(=O)OC(C)C(=O)NC(=O)NC1CCCCC1` (stereo not given), for which the z-score is active: -5.35.

For the molecule `NC(=O)C1(NC(=O)[C@@H]2CC3(CC(c4cccc(NC(=O)[C@@H]5CCC(=O)N5)c4)=NO3)CN2C(=O)c2ccccc2)CC1` (stereo not given in full), the z-score is -0.0696.

As for `CC1(C)OC(=O)C2(Cc3ccccc3N3CCCCC32)C(=O)O1` (stereo not given), the z-score is -0.162.

`Cc1occc1C(=O)N1N=C(C2CC2)CC1(O)C(F)(F)F` (stereo not given) yielded a z-score of 0.482.

Consider `CCn1c(SCC(N)=O)nc2c(c1=O)C1(CCCC1)Cc1ccccc1-2`, for which the z-score is active: 5.27.

Molecule `CCN(CC)C(=O)Cn1c(=O)n(C)c2ccccc21` returned a z-score of -0.353.

In turn, `CCOC(=O)C1=C(CC)Nc2ccccc2N=C1NC(=O)c1cccc(S(=O)(=O)N2CCCC2)c1` displayed a z-score of -0.533.

With `Cc1nc(-c2ccccc2O)n(S(=O)(=O)N(C)C)n1`, the z-score was -0.0465.

As for `COc1ccccc1NC(=O)CSc1nc2sc(C)c(C)c2c(=O)n1Cc1ccco1`, the z-score was -0.18.

Molecule `COc1ccc2[nH]c(=O)c(CN(C(=O)c3ccncc3)C(C)(C)C)cc2c1` showed a z-score of 0.0369.

For `CC(C)CCN1C(=O)c2ccc(C(=O)NCc3ccco3)cc2C1=O`, the z-score was -0.496.

Molecule `CN1CCN(S(=O)(=O)c2ccc(Sc3nnc(-c4cccs4)n3-c3ccccc3)nc2)CC1` displayed a z-score of -0.32.

Molecule `Cc1c(NC(=O)CN2c3cccc4cccc(c34)S2(=O)=O)c(=O)n(-c2ccccc2)n1C` came in with a z-score of 0.347.

In turn, `Cc1ccc(C2NC(=O)c3c(sc4c3CCN(C)C4)N2)s1` (stereo not given) returned a z-score of -0.182.

As to `COC(=O)c1ccc(NC(=O)CSc2nnc(C)n2-c2ccccc2)cc1`, the z-score is -0.137.

Molecule `CC(NC(=O)c1cccnc1)C(c1ccccc1)N1CCN(C)CC1` (stereo not given) yielded a z-score of 0.00847.

In the case of `C=CCn1c(SCc2ccccc2)nnc1-c1cccnc1`, the z-score is -0.0801.

For `Cc1cc2ncn(S(=O)(=O)N3CCCCC3)c2cc1C`, the z-score was -0.651.

`CC(C)(C)NC(=S)NCc1ccc2c(c1)OCO2` registered a z-score of 0.0205.

For the molecule `CCOC(=O)N1CCN(C(=O)C(c2ccccc2)c2ccccc2)CC1`, the z-score is -0.133.

For `C/C=C/c1ccc(OCCOc2cccc3cccnc23)c(OC)c1`, the z-score is -0.161.

The molecule `Clc1ccccc1-c1nnc2sc(C3COc4ccccc4O3)nn12` (stereo not given) registered a z-score of -0.958.

Regarding `O=C(Nc1ccc(-c2nnc3n2CCCCC3)cc1)c1cnccn1`, the z-score was -0.462.

On to `CCCN1Cc2cccc(C(=O)Nc3ccc(C)cc3)c2C1=O`, for which the z-score is 0.0165.

Take `CCc1nc(SCC(=O)c2ccc3c(c2)OCCO3)c2ccccc2n1`: the z-score was -0.802.

Molecule `O=c1c(-c2nc3ccccc3o2)c2oc3ccccc3n2c2ccccc12` came in with a z-score of -1.72.

`COc1ccc(Cn2nc(C)n(N(C)c3ncc(C(F)(F)F)cc3Cl)c2=O)cc1` yielded a z-score of -0.326.

As to `COc1ccc2c(CC(=O)NCC3CCC(C(=O)O)CC3)cc(=O)oc2c1` (stereo not given), the z-score was -0.124.

The molecule `COc1ccc(CCNc2cc(C)nc3c(-c4ccccc4)cnn23)cc1OC` yielded a z-score of -0.299.

`Cc1ccc(P(=O)(CO)c2ccc(C)cc2)cc1` yielded a z-score of -0.17.

For the molecule `C=CCn1c(CCNC(=O)c2cccs2)nnc1SCC(=O)c1ccc(Cl)cc1`, the z-score is -0.334.

In turn, `CC(C)NC(=S)N=Nc1c(O)[nH]c2ccc(C(C)C)cc12` gave a z-score of 0.589.

For `CCCCOC(=O)c1ccc(N/C(=N\S(=O)(=O)c2ccccc2)c2ccccc2)cc1`, the z-score is -0.212.

On to `CC1CCN(S(=O)(=O)c2cccc(-c3nnc(-c4cccnc4)o3)c2)CC1`, for which the z-score was -0.0658.

The molecule `O=C(c1oc(=O)c2ccccc2c1-c1ccccc1)N1CCOCC1` came in with a z-score of -0.111.

In the case of `Cc1ccc(NC(=O)c2snc3c(=O)[nH]cnc23)cc1C`, the z-score was determined as 0.0461.

Molecule `CCCn1c(SCC(=O)Nc2ccc(OC)cc2)nnc1-c1ccncc1` returned a z-score of -0.0144.

Consider `O=C(c1cnn2c(C(F)(F)F)cc(-c3cccs3)nc12)N1CCN(Cc2ccccc2)CC1`, for which the z-score was active: -3.66.

`CCOC(=O)C(=O)Nc1nnc(Cc2ccc(OC)c(OC)c2)s1` yielded a z-score of -0.264.

In the case of `N#CCSc1nnc(N)s1`, the z-score is 0.157.

In turn, `CC(=O)NC(=S)Nc1ccc(NC(=O)COc2ccc(Cl)cc2Cl)cc1` gave a z-score of -0.0173.

As to `O=C(O)Cn1nc(C(F)(F)F)c2c1CCCCC2`, the z-score was -0.624.

For the molecule `CCc1ccc(CNCCNCC(C)O)cc1` (stereo not given), the z-score came to 1.85.

In turn, `Cc1cc(C)n(-c2ccc(C(=O)N3CCc4ccccc43)cc2)n1` showed a z-score of 1.27.

Molecule `CC(=O)NNc1nc(-c2ccc(NC(C)=O)cc2)cs1` displayed a z-score of -0.0151.

Take `CC1CN(CCC(=O)Nc2ccc3c(c2)CCC3)CC(C)O1` (stereo not given): the z-score is -0.034.

Regarding `Cc1ccc(C(=O)N[C@H](C(=O)OCc2cc(=O)n3c(n2)sc2ccccc23)C(C)C)cc1`, the z-score was -0.284.

With `O=C(Nc1ccc(-c2cn3ccsc3n2)cc1)C1CC1`, the z-score is 0.0491.

In turn, `COc1cc([N+](=O)[O-])ccc1N` came in with a z-score of -0.0672.

In turn, `CCCC(=O)N(CCN(C(=O)CCC)c1ccccc1)c1ccccc1` yielded a z-score of -0.957.

Turning to `COc1ccc(-n2nc(C(=O)NCC(=O)Nc3ccccn3)c3ccccc3c2=O)cc1Cl`, the z-score was -0.298.

The molecule `Cc1c(NC(=O)CN2CCN(C(=O)c3ccco3)CC2)c(=O)n(-c2ccccc2)n1C` showed a z-score of -0.261.

In turn, `CC1CCN(C(=O)CC2C(=O)Nc3c2c(=O)n(C)c(=O)n3Cc2ccccc2)CC1` (stereo not given) came in with a z-score of -0.499.

In the case of `C=CCOC(=O)CCP(=O)(CCC(=O)OCC=C)c1ccccc1`, the z-score was 0.407.

In turn, `COc1ccc(NCc2nnc(SCC(=O)Nc3ccccc3OC)o2)cc1` showed a z-score of 0.202.

As for `C=CCN1C(=O)C(CC(=O)Nc2ccc(C)cc2)SC1=Nc1c(C)n(C)n(-c2ccccc2)c1=O` (stereo not given), the z-score was 0.0539.

The record behind these values is PubChem BioAssay AID488969 (Vanderbilt High Throughput Screening Facility, 2010).
